# Source: PubChem BioAssay (Tox21)
# Inconclusive means that the source gave no clear call. Such entries were picked first, then a sample of the others. A call without a number means that no potency is given here. For part of these data: Potencies beside an inconclusive call are fits to weak or partial responses and may not hold up. Calls of active or inactive are those of the source. Unless noted, calls come from the whole dose curve; as a rule, active = well fitted curve in the direction sought with a large enough effect in the repeat runs; inconclusive = weak or mixed curves; inactive = no such curve, though single readings can be large; an effect the other way counts as inactive or inconclusive.
# Legend:
# [1] = qHTS assay for small molecule agonists of the p53 signaling pathway (AID 651631; calls by dose curve; note: nearly all actives have a fitted effect of over 15% in size); conditions: HCT-116 p53RE-bla reporter, beta-lactamase FRET ratio, 16 h; activation: at 73.3 µM (top of the series) unless noted
# Summary of the method: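 p53RE-bla HCT-116 cells; compounds 16 h, 37 °C; LiveBLAzer B/G FRET substrate 2 h RT; fluorescence intensity read-out, qHTS format.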
# [2] = biological target: Vitamin D3 receptor (Homo sapiens) (UniProt P11473); experiment: qHTS assay to identify small molecule antagonists of the vitamin D receptor (VDR) signaling pathway (AID 743223; active = well fitted inhibition curve with a large enough effect in the signal ratio in the repeat runs, not every such curve was filed as active; inconclusive = weak or mixed curves, or effect the other way; inactive = no such curve, though single readings can be large or run the other way; the % refers to the signal ratio); conditions: VDR-UAS-bla HEK293T, beta-lactamase FRET ratio, 16 h; activity change, negative = inhibition: at 61 µM (top of the series) unless noted
# Chain of UniProt P11473 (P11473 whole entry, looked up): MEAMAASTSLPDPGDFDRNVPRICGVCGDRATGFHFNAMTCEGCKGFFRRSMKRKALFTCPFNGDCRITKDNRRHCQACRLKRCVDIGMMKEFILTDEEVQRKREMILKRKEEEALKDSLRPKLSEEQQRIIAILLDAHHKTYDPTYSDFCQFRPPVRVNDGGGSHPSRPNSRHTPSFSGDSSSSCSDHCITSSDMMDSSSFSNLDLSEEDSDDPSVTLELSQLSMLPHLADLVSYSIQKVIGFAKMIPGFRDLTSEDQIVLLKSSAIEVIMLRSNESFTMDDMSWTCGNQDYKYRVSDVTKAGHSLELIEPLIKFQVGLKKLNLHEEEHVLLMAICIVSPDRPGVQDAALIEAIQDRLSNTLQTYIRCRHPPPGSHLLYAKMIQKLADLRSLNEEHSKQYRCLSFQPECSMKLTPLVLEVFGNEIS
# Summary of the method: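 Beta-lactamase reporter read-out: FRET substrate fluorescence after 2 h at room temperature, following 16 h exposure of VDR-bla cells to test compound plus 3 nM (final) 1alpha,25-dihydroxyvitamin D3 agonist at 37C.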
# [3] = biological target: Retinoic acid receptor RXR-alpha (Homo sapiens) (UniProt P19793); experiment: qHTS assay to identify small molecule agonists of the RXR signaling pathway (AID 1159527; calls by dose curve; note: nearly all actives have a fitted effect of over 35% in size; note: potency is the fitted concentration of half-maximal effect); conditions: HEK293T RXRa-UAS-bla, beta-lactamase ratio, 16 h; activation: at 76.8 µM (top of the series) unless noted
# Chain of UniProt P19793 (P19793 whole entry, looked up): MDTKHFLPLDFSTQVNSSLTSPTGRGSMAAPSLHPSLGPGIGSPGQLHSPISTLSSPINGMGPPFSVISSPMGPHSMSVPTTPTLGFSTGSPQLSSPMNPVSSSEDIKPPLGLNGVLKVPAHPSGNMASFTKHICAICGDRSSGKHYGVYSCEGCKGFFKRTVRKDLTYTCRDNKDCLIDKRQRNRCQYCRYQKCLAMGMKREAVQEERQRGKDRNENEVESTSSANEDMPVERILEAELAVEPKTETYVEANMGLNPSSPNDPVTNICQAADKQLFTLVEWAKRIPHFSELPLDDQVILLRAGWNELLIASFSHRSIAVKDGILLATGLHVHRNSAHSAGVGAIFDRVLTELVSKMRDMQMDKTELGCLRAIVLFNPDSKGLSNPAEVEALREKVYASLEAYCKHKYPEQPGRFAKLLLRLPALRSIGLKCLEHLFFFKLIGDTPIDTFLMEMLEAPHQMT
# Summary of the method: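 Agonist mode; 9-cis retinoic acid positive control. HEK 293T UAS-bla reporter cells, 2% charcoal-stripped FBS, 16 hr compound exposure at 37 C/5% CO2. LiveBLAzer B/G FRET substrate 2 hr RT; ex 405, em 460/530 nm.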
# [4] = qHTS assay to identify small molecule antagonists of the sonic hedgehog signaling (Shh) pathway (AID 1259369; calls by dose curve; note: nearly all actives have a fitted effect of over 45% in size; note: potency is the fitted concentration of half-maximal effect)
# Summary of the method: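 Stable Gli1-Luc reporter NIH/3T3 clone; quantitative HTS in stimulated mode with conditioned medium. Luminescence measured after 24hr compound treatment at 37 C.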
# [5] = qHTS assay to identify small molecule antagonists of the progesterone receptor (PR) signaling pathway - cell viability counter screen (AID 1346798); note: nearly all actives have a fitted effect of over 50% in size; note: potency is the fitted concentration of half-maximal effect
# Summary of the method: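 Luminescence readout (CellTiter-Glo, 30 min, RT) of viability in PR-UAS-bla HEK293T cells exposed to compound and R5020 agonist for 16 hr at 37C, 5% CO2; run in the same wells as the beta-lactamase reporter read.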
# [6] = qHTS assay for small molecule disruptors of the mitochondrial membrane potential (AID 720635); conditions: HepG2 mitochondrial membrane potential, Mito-MPS dye ratio; ratio activity, negative = MMP loss: at 83.2 µM (top of the series) unless noted; note: potency is the fitted concentration of half-maximal effect
# Summary of the method: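 HepG2 cells (2,000/well) attached overnight at 37C, then took compound for 1 hr at 37C, 5% CO2. Mito-MPS dye was added for 30 min; fluorescence was read at 490/535 nm (monomers) and 540/590 nm (aggregates).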
# [7] = biological target: Glucocorticoid receptor (Homo sapiens) (UniProt P04150); experiment: qHTS assay to identify small molecule antagonists of the glucocorticoid receptor (GR) signaling pathway (AID 720692; active = well fitted inhibition curve with a large enough effect in the signal ratio in the repeat runs, not every such curve was filed as active; inconclusive = weak or mixed curves, or effect the other way; inactive = no such curve, though single readings can be large or run the other way; the % refers to the signal ratio); conditions: GR-bla HeLa, beta-lactamase FRET ratio, dexamethasone-stimulated, 18 h; activity change, negative = inhibition: at 58.5 µM (top of the series) unless noted
# Chain of UniProt P04150 (P04150 whole entry, looked up): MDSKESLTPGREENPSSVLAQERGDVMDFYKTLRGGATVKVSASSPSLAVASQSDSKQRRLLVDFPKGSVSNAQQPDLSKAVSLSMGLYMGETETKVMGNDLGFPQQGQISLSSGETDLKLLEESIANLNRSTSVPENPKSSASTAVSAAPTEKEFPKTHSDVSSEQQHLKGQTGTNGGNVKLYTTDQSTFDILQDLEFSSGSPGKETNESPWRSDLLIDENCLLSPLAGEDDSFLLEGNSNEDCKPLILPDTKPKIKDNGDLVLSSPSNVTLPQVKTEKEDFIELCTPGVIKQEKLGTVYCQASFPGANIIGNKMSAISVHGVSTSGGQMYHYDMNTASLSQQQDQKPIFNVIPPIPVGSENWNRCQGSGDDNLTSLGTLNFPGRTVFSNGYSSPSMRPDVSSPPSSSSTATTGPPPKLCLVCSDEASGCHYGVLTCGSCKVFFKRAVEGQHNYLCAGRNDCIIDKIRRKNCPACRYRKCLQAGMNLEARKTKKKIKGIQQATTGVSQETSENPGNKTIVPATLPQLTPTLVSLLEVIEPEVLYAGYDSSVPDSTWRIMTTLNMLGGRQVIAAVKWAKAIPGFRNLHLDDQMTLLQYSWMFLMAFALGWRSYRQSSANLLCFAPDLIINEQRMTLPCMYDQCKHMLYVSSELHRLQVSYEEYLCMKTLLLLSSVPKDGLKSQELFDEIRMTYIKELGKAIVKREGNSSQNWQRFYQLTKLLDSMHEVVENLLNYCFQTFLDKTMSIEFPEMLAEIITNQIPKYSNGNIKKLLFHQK
# Summary of the method: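 Quantitative HTS in antagonist format: HeLa cells expressing endogenous GR and a stably integrated GRE-bla reporter, stimulated with 5 nM dexamethasone (final) alongside test compounds for 18 h.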
# [8] = biological target: Cytochrome P450 2C19 (Homo sapiens) (UniProt P33261); experiment: Cytochrome P450 Family 2 Subfamily C Member 19 (CYP2C19) small molecule antagonists: luciferase reporter qHTS assay (AID 1671197); note: nearly all actives have a fitted effect of over 65% in size
# Chain of UniProt P33261 (P33261 whole entry, looked up): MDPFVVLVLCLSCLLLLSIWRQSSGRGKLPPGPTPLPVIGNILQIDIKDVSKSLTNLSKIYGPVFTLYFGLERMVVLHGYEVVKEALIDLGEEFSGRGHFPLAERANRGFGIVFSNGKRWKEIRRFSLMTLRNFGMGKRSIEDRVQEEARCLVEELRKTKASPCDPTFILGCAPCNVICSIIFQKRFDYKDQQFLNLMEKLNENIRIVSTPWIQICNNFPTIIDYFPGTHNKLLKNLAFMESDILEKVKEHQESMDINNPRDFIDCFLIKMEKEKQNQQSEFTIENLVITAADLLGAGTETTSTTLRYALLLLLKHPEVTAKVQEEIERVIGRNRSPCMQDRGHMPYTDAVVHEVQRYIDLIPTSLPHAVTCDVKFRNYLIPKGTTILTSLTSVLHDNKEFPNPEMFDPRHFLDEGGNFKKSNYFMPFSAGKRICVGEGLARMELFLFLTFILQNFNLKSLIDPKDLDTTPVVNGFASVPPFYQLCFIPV
# Summary of the method: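 Quantitative high-throughput screen of the Tox21 library using CYP2C19 with proluciferin substrate. Reaction: NADPH regeneration, 37C, 1 h, after 10 min compound preincubation at room temperature. Readout: luminescence.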
# [9] = biological target: Cytochrome P450 1A2 (Homo sapiens) (UniProt P05177); experiment: Cytochrome P450 Family 1 Subfamily A Member 2 (CYP1A2) small molecule antagonists: luciferase reporter qHTS assay (AID 1671199); note: nearly all actives have a fitted effect of over 50% in size; note: potency is the fitted concentration of half-maximal effect
# Chain of UniProt P05177 (P05177 whole entry, looked up): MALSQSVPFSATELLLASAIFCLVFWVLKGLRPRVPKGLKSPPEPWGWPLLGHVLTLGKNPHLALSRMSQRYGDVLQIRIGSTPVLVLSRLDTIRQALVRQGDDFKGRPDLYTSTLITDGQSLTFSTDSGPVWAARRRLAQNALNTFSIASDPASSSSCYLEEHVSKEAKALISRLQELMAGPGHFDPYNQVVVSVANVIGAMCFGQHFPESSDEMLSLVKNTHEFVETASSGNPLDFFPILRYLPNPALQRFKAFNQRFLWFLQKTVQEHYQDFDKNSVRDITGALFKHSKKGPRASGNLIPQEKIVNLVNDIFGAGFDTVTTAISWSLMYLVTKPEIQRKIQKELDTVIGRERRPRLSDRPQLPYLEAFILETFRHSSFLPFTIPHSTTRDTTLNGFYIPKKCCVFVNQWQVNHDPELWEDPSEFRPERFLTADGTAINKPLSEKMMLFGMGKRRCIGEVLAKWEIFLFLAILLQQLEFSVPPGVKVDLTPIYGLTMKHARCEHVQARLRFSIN
# Summary of the method: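 Steps: enzyme-substrate mix dispensed; test compounds and furafylline control pinned in; 10 min room temperature; NADPH regeneration solution added, 1 h; reaction stopped with luciferin detection reagent; luminescence read after 20 min.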
# [10] = qHTS assay for identifying genotoxic compounds that show differential cytotoxicity against isogenic chicken DT40 cell lines with known DNA damage response pathways - wild type cell line (AID 743012); conditions: DT40 wild type chicken cells viability, CellTiter-Glo, 40 h; activity change, negative = cytotoxicity: at 68.4 µM (top of the series) unless noted; note: nearly all actives have a fitted effect of over 60% in size; note: potency is the fitted concentration of half-maximal effect
# Summary of the method: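 Luminescent ATP viability signal (CellTiter-Glo, 30 min RT) recorded after wild type DT40 cells were incubated with compounds for 40 h at 37 C/5% CO2.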
# [11] = qHTS assay to identify small molecule antagonists of the thyroid receptor (TR) signaling pathway - cell viability counter screen (AID 743064); conditions: GH3.TRE-Luc viability, CellTiter-Fluor, 24 h; activity change, negative = cytotoxic: at 70.3 µM (top of the series) unless noted; note: nearly all actives have a fitted effect of over 50% in size; note: potency is the fitted concentration of half-maximal effect
# Summary of the method: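 GH3.TRE-Luc cells, 4 h pre-plating; cpd + T3 1 nM final; 37 °C 23.5 h; CellTiter-Fluor 30 min; fluorescence read.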
# [12] = biological target: Peroxisome proliferator-activated receptor gamma (Homo sapiens) (UniProt P37231); experiment: qHTS assay to identify small molecule antagonists of the peroxisome proliferator-activated receptor gamma (PPARg) signaling pathway (AID 743191; calls by dose curve; note: nearly all actives have a fitted effect of over 30% in size); conditions: HEK293H PPARg-UAS-bla, beta-lactamase ratio, antagonist, 17 h; ratio activity, negative = inhibition: at 62.6 µM (top of the series) unless noted
# Chain of UniProt P37231 (P37231 whole entry, looked up): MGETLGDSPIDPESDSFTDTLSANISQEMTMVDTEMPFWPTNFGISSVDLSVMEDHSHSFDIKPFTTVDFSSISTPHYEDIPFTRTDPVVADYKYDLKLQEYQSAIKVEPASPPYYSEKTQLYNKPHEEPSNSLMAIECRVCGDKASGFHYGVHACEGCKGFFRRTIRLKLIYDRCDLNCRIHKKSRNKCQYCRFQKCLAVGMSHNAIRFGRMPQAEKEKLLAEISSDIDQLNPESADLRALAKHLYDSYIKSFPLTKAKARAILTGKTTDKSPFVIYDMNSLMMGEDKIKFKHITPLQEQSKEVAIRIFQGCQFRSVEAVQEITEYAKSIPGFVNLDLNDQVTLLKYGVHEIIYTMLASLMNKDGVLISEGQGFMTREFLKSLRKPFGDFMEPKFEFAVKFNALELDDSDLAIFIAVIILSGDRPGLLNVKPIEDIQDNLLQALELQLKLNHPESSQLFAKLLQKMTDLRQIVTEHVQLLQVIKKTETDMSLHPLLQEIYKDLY
# Summary of the method: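 GeneBLAzer PPARg UAS-bla HEK293H cells carrying a UAS-driven beta-lactamase reporter were plated at 3000 cells/well, preincubated 5 h at 37C, then given compound for 17 h at 37C; LiveBLAzer B/G FRET substrate was read after 1 h at room temperature.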
# [13] = qHTS assay to identify small molecule antagonists of the peroxisome proliferator-activated receptor delta (PPARd) signaling pathway - cell viability counter screen (AID 743213); conditions: PPARd-bla HEK293H viability, CellTiter-Glo luminescence, 17 h; viability change, negative = cytotoxic: at 62 µM (top of the series) unless noted; note: potency is the fitted concentration of half-maximal effect; nearly all actives have a fitted effect of over 50% in size
# Summary of the method: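 Agonist-stimulated (L165041, 300 nM final) HEK293H PPARd UAS-bla cells are exposed to compounds for 17 h at 37 C, and ATP-based luminescence (CellTiter-Glo) from the same wells reports cytotoxicity.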
# [14] = qHTS assay to identify small molecule agonists of the farnesoid-X-receptor (FXR) signaling pathway - cell viability counter screen (AID 743218); conditions: FXR-bla HEK293T viability, CellTiter-Glo luminescence, 16 h; viability change, negative = cytotoxic: at 62.6 µM (top of the series) unless noted; note: potency is the fitted concentration of half-maximal effect; nearly all actives have a fitted effect of over 45% in size
# Summary of the method: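 Viability of FXR-bla HEK 293T cells is measured by ATP-based CellTiter-Glo luminescence following 16 h compound treatment at 37 C and a prior 2 h room-temperature beta-lactamase substrate step.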
# [15] = qHTS assay for small molecule agonists of the antioxidant response element (ARE) signaling pathway (AID 743202; active = well fitted activation curve with a large enough effect in the signal ratio in the repeat runs, not every such curve was filed as active; inconclusive = weak or mixed curves, or effect the other way; inactive = no such curve, though single readings can be large or run the other way; the % refers to the signal ratio); conditions: HepG2 ARE-bla reporter, beta-lactamase FRET, 16 h; activation: at 73.3 µM (top of the series) unless noted
# Summary of the method: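 Steps: seed ARE-bla HepG2 cells (2,000/well); incubate 5 h at 37 C; add compounds by pin tool; incubate 16 h at 37 C; add FRET substrate; read fluorescence after 2 h at RT.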
# [16] = biological target: Progesterone receptor (Homo sapiens) (UniProt P06401); experiment: qHTS assay to identify small molecule antagonists of the progesterone receptor (PR) signaling pathway (AID 1346795; active = well fitted inhibition curve with a large enough effect in the signal ratio in the repeat runs, not every such curve was filed as active; inconclusive = weak or mixed curves; the % refers to the signal ratio); conditions: PR-UAS-bla HEK293T, beta-lactamase FRET ratio, 16 h; activity change, negative = inhibition: at 92.4 µM (top of the series) unless noted
# Chain of UniProt P06401 (P06401 whole entry, looked up): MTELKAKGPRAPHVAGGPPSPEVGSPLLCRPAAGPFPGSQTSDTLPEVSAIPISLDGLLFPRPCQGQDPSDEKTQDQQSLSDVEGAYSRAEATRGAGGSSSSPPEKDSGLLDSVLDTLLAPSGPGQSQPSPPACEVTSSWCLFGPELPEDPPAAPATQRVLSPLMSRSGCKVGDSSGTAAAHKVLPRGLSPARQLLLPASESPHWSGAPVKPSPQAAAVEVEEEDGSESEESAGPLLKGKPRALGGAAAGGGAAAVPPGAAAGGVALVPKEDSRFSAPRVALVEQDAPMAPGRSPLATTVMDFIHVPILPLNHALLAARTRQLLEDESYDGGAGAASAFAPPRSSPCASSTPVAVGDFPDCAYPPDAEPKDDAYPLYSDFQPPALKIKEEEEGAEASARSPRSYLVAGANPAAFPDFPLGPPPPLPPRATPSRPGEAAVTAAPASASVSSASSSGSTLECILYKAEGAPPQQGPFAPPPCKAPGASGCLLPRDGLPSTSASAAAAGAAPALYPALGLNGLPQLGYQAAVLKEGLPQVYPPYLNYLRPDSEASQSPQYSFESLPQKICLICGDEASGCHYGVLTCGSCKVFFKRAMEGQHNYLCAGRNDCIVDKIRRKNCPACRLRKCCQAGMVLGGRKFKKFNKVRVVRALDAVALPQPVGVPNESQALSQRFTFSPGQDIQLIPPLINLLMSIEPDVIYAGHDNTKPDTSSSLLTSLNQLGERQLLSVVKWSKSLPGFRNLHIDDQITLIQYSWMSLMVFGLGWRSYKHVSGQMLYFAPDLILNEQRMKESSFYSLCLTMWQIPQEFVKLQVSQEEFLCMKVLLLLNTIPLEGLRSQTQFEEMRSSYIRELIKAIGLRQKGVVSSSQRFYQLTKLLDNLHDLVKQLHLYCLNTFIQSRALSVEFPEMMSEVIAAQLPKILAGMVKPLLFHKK
# Summary of the method: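 Beta-lactamase reporter, HEK293T PR-UAS-bla line; 2% charcoal-stripped FBS; 6 hr pre-incubation, 37C/5% CO2. Compound + R5020 1 nM final, 16 hr. LiveBLAzer B/G FRET substrate, 2 hr RT; fluorescence intensity read.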
# [17] = biological target: Cytochrome P450 2C9 (Homo sapiens) (UniProt P11712); experiment: Cytochrome P450 Family 2 Subfamily C Member 9 (CYP2C9) small molecule antagonists: luciferase reporter qHTS assay (AID 1671198); note: nearly all actives have a fitted effect of over 50% in size; note: potency is the fitted concentration of half-maximal effect
# Chain of UniProt P11712 (P11712 whole entry, looked up): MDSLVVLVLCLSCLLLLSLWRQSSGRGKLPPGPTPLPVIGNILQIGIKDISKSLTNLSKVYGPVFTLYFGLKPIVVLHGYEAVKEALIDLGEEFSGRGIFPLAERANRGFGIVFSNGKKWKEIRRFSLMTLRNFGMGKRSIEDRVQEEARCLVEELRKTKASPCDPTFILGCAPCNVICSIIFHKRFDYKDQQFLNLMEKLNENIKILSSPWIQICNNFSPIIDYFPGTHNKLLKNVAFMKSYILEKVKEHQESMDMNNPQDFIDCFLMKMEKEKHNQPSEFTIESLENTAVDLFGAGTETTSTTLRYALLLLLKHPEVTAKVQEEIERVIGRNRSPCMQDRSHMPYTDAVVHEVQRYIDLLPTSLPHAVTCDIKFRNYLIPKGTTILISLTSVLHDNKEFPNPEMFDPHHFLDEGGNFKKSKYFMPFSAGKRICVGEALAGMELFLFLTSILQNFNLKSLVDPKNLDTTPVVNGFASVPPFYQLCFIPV
# Summary of the method: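 CYP2C9 activity was measured with a P450-Glo proluciferin substrate. Enzyme–substrate mix was held with compound for 10 min at room temperature, then NADPH regeneration solution was added for 1 h at 37C. Luciferin product was read as luminescence.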
# [18] = qHTS assay to identify small molecule agonists of the progesterone receptor (PR) signaling pathway - cell viability counter screen (AID 1346799; calls by dose curve; note: potency is the fitted concentration of half-maximal effect; nearly all actives have a fitted effect of over 45% in size)
# Summary of the method: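 HEK293T PR-UAS-bla, 3,000 cells/well, 2% charcoal-stripped FBS; 6 h settle, compound 16 h at 37C/5% CO2; LiveBLAzer 2 h RT, then CellTiter-Glo 30 min RT, luminescence read.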
# Tags give direction and shape of the fitted curve or compound fluorescence and quenching.
structure (smiles),measurement,setting,value
C1CCN2C[C@@H]3C[C@@H](CN4CCCC[C@@H]34)[C@H]2C1,Potency,[1],inactive
same,Potency,[2],inactive
same,Potency,[3],inactive
same,Potency,[4],inactive
same,Potency,[5],"inconclusive: 33.5 µM [cytotoxic, partial curve, poor fit]"
CCCCCO,"ratio activity, negative = MMP loss",[6],inconclusive: 4.21%
same,Potency,[7],inactive
same,Potency,[3],"inconclusive: 21.8 µM [activator, full curve, poor fit]"
same,Potency,[8],inactive
same,Potency,[9],"inconclusive: 63.2 µM [inhibitor, partial curve]"
O=C1OC(=O)c2cc(Oc3ccc4c(c3)C(=O)OC4=O)ccc21,"activity change, negative = cytotoxicity",[10],inconclusive: 1.3%
same,Potency,[11],"inconclusive: 48.6 µM [rising, partial curve, poor fit]"
same,"ratio activity, negative = inhibition",[12],inconclusive: 10%
same,Potency,[13],"inconclusive: 2.19 µM [cytotoxic, single point]"
same,Potency,[14],"inconclusive: 0.0039 µM [rising, full curve, poor fit]"
same,Potency,[3],inactive
CCn1cc(C(=O)O)c(=O)c2cc(F)c(N3CCNCC3)nc21,"ratio activity, negative = MMP loss",[6],inconclusive: 11.6% [at 39.1 µM]
same,Potency,[11],inactive
same,Potency,[12],inactive
same,Potency,[15],inactive
same,Potency,[3],inactive
same,Potency,[16],inactive
same,Potency,[5],inactive
CCNC(=O)C(C)OC(=O)Nc1ccccc1 (stereo not given),Potency,[6],"inconclusive: 0.686 µM [activator, partial curve, poor fit]"
same,Potency,[7],inactive
same,Potency,[10],"inconclusive: 122 µM [cytotoxic, partial curve, poor fit]"
same,Potency,[11],"inconclusive: 6.86 µM [rising, single point]"
same,Potency,[3],inactive
same,Potency,[4],"inconclusive: 68.6 µM [inhibitor, single point]"
same,Potency,[5],"inconclusive: 1.37 µM [cytotoxic, single point]"
CNc1ccccc1,Potency,[10],inactive
same,Potency,[12],inactive
same,activation,[3],inconclusive: 12.9%
same,Potency,[17],"inconclusive: 25.2 µM [inhibitor, full curve, poor fit]"
CC(C)=CCCC(C)O (stereo not given),Potency,[3],inactive
same,Potency,[18],"inconclusive: 48.6 µM [cytotoxic, partial curve, poor fit]"
same,Potency,[17],inactive
same,Potency,[9],inactive
CCCCCCCCCCCl,Potency,[6],inactive
same,"activity change, negative = inhibition",[7],inconclusive: 19.1% [at 78.9 µM]
same,Potency,[10],inactive
same,Potency,[3],inactive
same,Potency,[5],"inconclusive: 78.3 µM [rising, single point]"
same,Potency,[8],inactive
same,Potency,[17],inactive
